According to PubChem BioAssay AID1508623 (National Center for Advancing Translational Sciences (NCATS), 2021):
The whole screen tested about 48,000 compounds, of which about 450 (0.94%) were called active. About 19% were inconclusive and are not listed. Calls follow the shape of the dose curve; as a rule, active = well fitted inhibition curve with a large enough effect; inconclusive = small, poorly fitted or top-dose-only effect; inactive = no such curve, though single readings can be large or run the other way. Some of the results follow.

Assay: Primary qHTS for Identification of Small Molecule Inhibitors of Huntingtin Promoter Activity; also: nearly all actives have a fitted effect of over 50% in size
Conditions: HEK293 HTT promoter firefly luciferase reporter (activity 0% = vehicle and -100% = no light), 24 h; series mostly up to 57.5 µM; activity change, negative = inhibition: at the top concentration
Procedure, shortened: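 HEK293 Fluc reporter, 2,500 cells/well, 24 h pre-culture; cpds up to 57.5 uM final, 24 h 37 degrees C; Dual-Glo, 10 min RT; normalized vehicle = 0%, zero RLU = -100%.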

Activity change, negative = inhibition, inactive:
COc1ccc(-c2cc3nc(N)cc(=O)n3[nH]2)cc1 26.9%, CCC(=O)N1c2ccccc2CC1C(=O)NCCCN1CCN(c2cc(C)ccc2C)CC1 (stereo not drawn) -20.7%, O=C(NCCCc1nc2ccccc2n1Cc1ccc(F)cc1)C1CCCCC1 -24.1%, Cc1ccc(C)c(CSc2nc3c([nH]c4ccccc43)c(=O)n2C)c1 0.0369%, Cc1cccc(C)c1OCc1cc(=O)n2c(-c3ccccc3)csc2n1 -20.4%, COc1ccc(NC(=O)c2cc(S(=O)(=O)N3CCOCC3)cn2C)cc1Cl -13.3%, O=C1CS(=O)(=O)C2(C(=O)Nc3ccccc32)N1c1cccc(Cl)c1 (stereo not drawn) -10.2%, COc1cccc2c1cc1c(=O)n(CC(=O)N3CCN(c4ccccc4F)CC3)nc(C)n12 -9.18%, CCOc1ccc(NC(=O)CCCc2nc(-c3cccc(OC)c3)no2)cc1 2.22%, Cc1ccc(CNC(=O)c2sc3nc(C)cc(C)c3c2-n2cccc2)cc1 -1.84%, Cc1cccc(Cn2c(C)c(C)c3cc(C(=O)NCc4ccco4)ccc32)c1 -26.9%, COc1ccc2[nH]c(=O)c(CN(C(=O)c3cccc(Cl)c3)c3ccccc3OC)cc2c1 -18.5%, CS(=O)(=O)N1CCc2cc(S(=O)(=O)NCc3ccccc3Cl)ccc21 -24.5%, CC(=O)Nc1ccccc1OCc1cc(=O)n2c3c(sc2n1)CCCC3 -0.49%, Cn1c2ccccc2c2cnn(CC(=O)NCc3ccc(Cl)cc3)c(=O)c21 2.26%, COc1ccc(-c2nc(Cn3c(SCc4cccc(Cl)c4)nc4ccncc43)c(C)o2)cc1 -28.2%, Cc1ccc(Sc2c(C)nn(C(=O)COc3ccccc3)c2C)cc1 -18.3%, Cn1cnc(S(=O)(=O)N2CCC(C(=O)NCc3ccccc3)CC2)c1 -23.4%, CC1=C(c2ccc(F)cc2)S(=O)(=O)N=C1N1CCC(C(=O)NCCc2ccco2)CC1 -18.2%, CCOC(=O)c1c(S(=O)(=O)N2CCCC(C(=O)N(C)Cc3ccccc3)C2)c(C)n(C)c1C (stereo not drawn) -7.9%, COc1cc(NC(=O)Cn2ccn(Cc3ccccc3OC)c(=O)c2=O)cc(OC)c1 -13.8%, O=C(CN1CCN(Cc2ccc(F)cc2Cl)S1(=O)=O)Nc1ccc(F)cc1 -20.2%, COc1ccccc1NC(=O)CSc1nc2ccccc2c(=O)n1CCC(=O)NC1CCCCC1 4.52%, Cc1ccc(C(c2sc3nc(-c4ccco4)nn3c2O)N2CCOCC2)cc1 (stereo not drawn) 2.75%, Cc1ccc(Cn2nc(C)c(NC(=O)c3cc(-c4ccc(F)cc4)on3)c2C)cc1 -20.3%, Cc1ccc(NC(=O)Cn2c(C)cc(C)c(C#N)c2=O)cc1 -3.11%, CCN(CC)CCOC(=O)C1(C2CCCCC2)CCCCC1 2.35%, CCCCOCCOCCOCc1cc2c(cc1CCC)OCO2, Oc1ccccc1 0.895%, CCOc1ccc(CCNC(=O)c2cn(C)c3ccc(S(=O)(=O)N4CCOCC4)cc3c2=O)cc1OCC 13.3%, Cc1cc(NS(=O)(=O)c2ccc(NC(=O)c3ccccc3F)cc2)nc(C)n1 -16.1%, Cc1cccc(OCC(=O)NCC2(N3CCN(C)CC3)CCCCC2)c1C -10.2%, CCCNC(=O)C(=O)NCC(c1ccc2c(c1)OCO2)N1CCOCC1 (stereo not drawn) -24.7%, Cc1ccc(NC(=O)c2ccc3snnc3c2)cc1Cl 37.5%, CCC(=O)N1CCc2cc(Br)cc(S(=O)(=O)CCC(=O)N3CCN(c4ccccc4OC)CC3)c21 -18.9%, COc1ccc(-c2ccnc3[nH]n(-c4ccccc4)c(=O)c23)cc1 -26.3%, COc1ccccc1N1CCN(S(=O)(=O)c2ccc3[nH]c4c(c3c2)CCCC4)CC1 -30.9%, COc1ccc(C(=O)N2CC(=O)Nc3ccc(C)cc3C2c2ccccc2)c(OC)c1 (stereo not drawn) -20.7%, Cc1ccc(-n2ncc(C(=O)N3CCCCC3)c2C2CCN(C(=O)OC(C)(C)C)CC2)cc1C 1.61%, Cc1ccc(-c2nc3ccccc3s2)cc1NC(=O)COc1ccccc1 37.6%, CCOc1ccc(/C=C/c2nc(C#N)c(N3CCCCC3)o2)cc1 -14.3%, Cc1ccc(OCC(=O)NCC2(N3CCOCC3)CCCCC2)cc1C -28.5%, CCCCN(CCCC)CCNC(=O)c1cn(CC)c2ccc(S(=O)(=O)N3CCc4ccccc4C3)cc2c1=O -23.3%, CCCN(CCC)CCNC(=O)CN1C(=O)COc2ccc(S(=O)(=O)N3CCC(C)CC3)cc21 -7.76%, CCOC(=O)Cn1nc(-c2ccccc2)c2cnc3ccc(OCC)cc3c21 -15.7%, Cc1oc(-c2cccc(Cl)c2)nc1CN1CCC(C(=O)NCCCN2CCN(c3ccccc3F)CC2)CC1 -31.9%, CCOC(=O)CSc1nc2c([nH]c3ccccc32)c(=O)n1-c1ccc(OC)cc1 -5.24%, O=C(CN(CCc1ccccc1)S(=O)(=O)c1ccc(Br)cc1)NCc1ccc(Cl)cc1 -20.2% [at 11.5 µM]
